Here are results for 90 compounds from article PMC4336329 (PLoS ONE, 2015).

Each structure is given as a SMILES string. Among all 310,000 compounds or so, about 2,200 (0.71%) showed an effect of 50% or more. The effect is printed as a negative number. This is one part of the list.

In the experiment the target is human ether-à-go-go-related gene (hERG) potassium channel (human, UniProt Q12809). The experiment is described as follows: primary screen, population patch clamp on CHO cells stably expressing hERG.
Sequence of human ether-à-go-go-related gene (hERG) potassium channel (Q12809 whole entry, looked up): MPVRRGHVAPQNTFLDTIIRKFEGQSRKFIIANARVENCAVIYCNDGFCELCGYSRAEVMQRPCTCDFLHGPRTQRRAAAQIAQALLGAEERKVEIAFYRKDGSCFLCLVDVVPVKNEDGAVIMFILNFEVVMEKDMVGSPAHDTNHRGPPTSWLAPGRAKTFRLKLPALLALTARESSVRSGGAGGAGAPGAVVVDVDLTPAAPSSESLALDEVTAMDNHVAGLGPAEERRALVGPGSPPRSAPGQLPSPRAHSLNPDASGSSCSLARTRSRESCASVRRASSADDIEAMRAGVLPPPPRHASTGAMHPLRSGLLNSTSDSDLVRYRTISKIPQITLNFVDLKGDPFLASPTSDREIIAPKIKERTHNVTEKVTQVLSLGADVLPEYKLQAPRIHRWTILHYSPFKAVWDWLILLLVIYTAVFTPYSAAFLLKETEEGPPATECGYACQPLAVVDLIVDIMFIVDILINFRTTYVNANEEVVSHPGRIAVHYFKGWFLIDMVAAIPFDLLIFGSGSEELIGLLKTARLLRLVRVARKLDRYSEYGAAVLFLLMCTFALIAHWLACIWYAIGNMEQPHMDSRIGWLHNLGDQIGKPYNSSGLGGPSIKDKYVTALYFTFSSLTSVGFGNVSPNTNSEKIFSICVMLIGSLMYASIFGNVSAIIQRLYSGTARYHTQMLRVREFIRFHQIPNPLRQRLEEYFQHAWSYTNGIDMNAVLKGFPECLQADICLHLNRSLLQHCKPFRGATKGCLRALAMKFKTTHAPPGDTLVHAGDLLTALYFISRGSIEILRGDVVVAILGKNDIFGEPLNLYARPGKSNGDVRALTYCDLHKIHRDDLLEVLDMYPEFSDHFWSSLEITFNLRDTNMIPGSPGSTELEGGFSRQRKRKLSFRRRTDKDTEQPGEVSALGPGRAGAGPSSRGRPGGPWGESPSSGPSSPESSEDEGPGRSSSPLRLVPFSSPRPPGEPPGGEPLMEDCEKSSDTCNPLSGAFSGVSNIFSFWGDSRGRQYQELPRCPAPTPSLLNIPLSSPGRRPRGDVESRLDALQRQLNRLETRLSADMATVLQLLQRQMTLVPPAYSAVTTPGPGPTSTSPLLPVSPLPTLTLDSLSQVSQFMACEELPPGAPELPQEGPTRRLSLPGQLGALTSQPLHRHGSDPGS
Turning to `Nc1nonc1-n1nnc(C(=O)N/N=C/c2c(Cl)cccc2Cl)c1CN1CCOCC1`, the “hERG current change (%, negative = inhibition) at 1uM” value is reported as 9.4%. For `CCC(=O)n1nc(NCc2ccc(OC)c(OC)c2)nc1NCc1ccc(OC)c(OC)c1` the value was 10.6%; for `NS(=O)(=O)c1ccc(Nc2nc(-c3ccc(O)cc3)cs2)cc1`, 8.52%.

On to `CCOC(=O)/C=C1\SCC(=O)N1CC(=O)Nc1ccccc1OC(F)F`, for which the “hERG current change (%, negative = inhibition) at 1uM” value was 16.9%. For `COc1ccccc1CCNC(=O)CCn1c(=O)oc2ccccc21` the value was 16.4%. As to `CC(C)(C)c1cc(Cl)ccc1OCCn1ccnc1.O=C(O)C(=O)O`, the “hERG current change (%, negative = inhibition) at 1uM” value is listed as 14.2%. With `NC(=O)c1cccc2ccccc12`, the “hERG current change (%, negative = inhibition) at 1uM” value is reported as 4.67%. To `CC(=O)c1c(C)nc(Nc2nc3ccccc3s2)nc1C` belongs -0.171%; to `COc1cc(Cl)c(C)cc1NC(=O)CSc1cc(Cl)ccc1Cl`, 9.02%. To `CCc1ccc2c(CN(CC)Cc3nc4ccccc4c(=O)[nH]3)cc(=O)oc2c1` belongs -60.5%; to `CCN1CCCC1CNC(=O)c1cc(OC)c(OC)c(OC)c1` (stereo not drawn), 16%; to `Cc1ccc(N(C(=O)c2snc(C(N)=O)c2N)C(C(=O)NCC2CCCO2)c2ccc(C)o2)c(C)c1` (stereo not drawn), -14.5%.

In the case of `CCOc1ccc2[nH]c(=O)c(CN(CCO)C(=O)CC)cc2c1`, the “hERG current change (%, negative = inhibition) at 1uM” value is reported as 14.9%. To `Cc1c(C(=O)NC(=S)NCc2cccnc2)oc2ccccc12` belongs 7.18%. For `Cc1cccc(OCC(=O)Nc2cc(Cl)ccc2-n2cncn2)c1C` the value was 5.34%; for `Cc1ccc(CNC(=O)/C=C/c2cccs2)cc1`, 11.6%. On to `COc1ccc(Cc2nnc(NC(=O)c3ccc(F)cc3)s2)cc1OC`, for which the “hERG current change (%, negative = inhibition) at 1uM” value was 18.4%. In the case of `CCOc1nc2cnccc2n(CC(=O)Nc2ccccc2F)c1=O`, the “hERG current change (%, negative = inhibition) at 1uM” value is listed as 25%. In the case of `CCOc1ccc(Cc2c(Cl)nc(SC)nc2OC)cc1`, the “hERG current change (%, negative = inhibition) at 1uM” value was 8.33%. For `CN(CC(=O)Nc1ccc(Cl)c(C(F)(F)F)c1)C(=O)c1cccs1` the value was 16.8%; for `Cc1c(C)c2cc(Cl)c(O)c(CN3CCCCC3)c2oc1=O`, 15.4%; for `Cc1cc(N2CCOCC2)nc(SCc2ccc(Cl)cc2Cl)n1`, 14.5%. For `O=C(CSc1nnc(-c2csc3c2CCCC3)o1)Nc1ccccc1` the value was -4.52%; for `Cc1cccc(-c2cc3nc4c(c(N5CCCC(O)C5)n3n2)CCC4)c1` (stereo not drawn), 11.2%; for `Cc1sc2nc(CN3CCOCC3)nc(Oc3ccc(NC(=O)c4ccco4)cc3)c2c1C`, 4.61%. For the compound `CN(C)CCNc1nc(-c2ccccc2)c2c(c1C#N)CC(C)(C)OC2`, the “hERG current change (%, negative = inhibition) at 1uM” value is -27.7%.

In the case of `COc1ccc2[nH]c(=O)c(-c3noc(-c4ccc(F)cc4)n3)cc2c1`, the “hERG current change (%, negative = inhibition) at 1uM” value is reported as 4.91%. Take `CNC(=O)/C(=C\c1ccco1)NC(=O)c1ccco1`: the “hERG current change (%, negative = inhibition) at 1uM” value came to 11.7%.

Consider `CC(C)n1c(=O)c(C=Nc2ccc(S(N)(=O)=O)cc2)c(O)n(Cc2ccco2)c1=O`, for which the “hERG current change (%, negative = inhibition) at 1uM” value turned out to be 14%.

For `O=C(O)C(=O)O.OC(COC(c1ccc(F)cc1)c1ccc(F)cc1)CN1CCCC1` (stereo not drawn), the “hERG current change (%, negative = inhibition) at 1uM” value is listed as -62%. For `O=C(NNC(=O)c1ccc(Br)s1)c1cccc(Cl)c1`, the “hERG current change (%, negative = inhibition) at 1uM” value is given as 10.9%. To `O=C(NN=C1CCCCCC1)c1cc(-c2ccccc2)nc2ccccc12` belongs 5.86%. For `Cc1ccc(S(=O)(=O)NCC(=O)OCC(=O)NC(=O)c2cccn2C)cc1` the value was 17.4%. To `Cc1nn(-c2ccc(N3CCOCC3)nn2)c(C)c1CCC(=O)N1CCN(C)CC1` belongs 13.1%; to `Cn1c(=O)c2c(ncn2CC(=O)N/N=C/c2ccco2)n(C)c1=O`, 3.67%; to `CC(=O)c1ccc(N2CCN(C(=O)Nc3ccc(Cl)cc3)CC2)cc1`, 8.73%. Regarding `O=C(Cn1nc(-c2ccc3c(c2)OCCO3)ccc1=O)Nc1ccc(-n2cnnn2)cc1`, the “hERG current change (%, negative = inhibition) at 1uM” value is on record as 13.7%. To `O=C(Nc1cccc(-n2cnnn2)c1)c1cc(Cl)nc(Cl)c1` belongs 4.83%. In the case of `CCOC(=O)CSc1nnc(COc2ccc3ccccc3c2)o1`, the “hERG current change (%, negative = inhibition) at 1uM” value was 10%. To `CC(C)(C)c1ccc(Cn2nnc3c(=O)[nH]c(C4CCCN(C(=O)c5ccco5)C4)nc32)cc1` (stereo not drawn) belongs 8.87%; to `CCC(CC)C(=O)c1c[nH]c(C(=O)NC2CCCCCC2)c1`, 3.72%; to `COc1ccc(-c2noc(-c3cccnc3)n2)cc1OC`, 7.87%. For `COc1cc2[nH]c(=O)c(C(=O)NCc3ccc(F)cc3)c(O)c2cc1OC` the value was 8.85%. To `O=C(COC(=O)c1nc(Cl)ccc1Cl)Nc1ncc(Cl)cc1Cl` belongs 14.4%; to `CC(=O)Nc1ccc(Cl)cc1C(=O)O`, 8.71%. For the compound `O=C(CNC(=O)c1cccs1)Nc1ncccc1O`, the “hERG current change (%, negative = inhibition) at 1uM” value amounted to 9.71%. To `Cc1nc(N(C)Cc2ccccc2)c2nnn(Cc3ccccc3)c2n1` belongs 12.4%; to `Cc1nn(-c2ccccc2)c(C)c1C(=O)NCc1cccs1`, 11.2%; to `O=S(=O)(c1cccc2cccnc12)N1CCCCC1`, 12.4%. For `CCCCNC(=O)NC12CC3CC(CC(C3)C1)C2`, the “hERG current change (%, negative = inhibition) at 1uM” value is reported as -12%. As to `CCN(CC)CCOC(=O)c1cccc2c1-c1ccccc1C2O.Cl` (stereo not drawn), the “hERG current change (%, negative = inhibition) at 1uM” value amounted to 5.9%. To `COc1ccc(CN(CC2CCCO2)C(=O)CN2C(=O)COc3ccccc32)cc1OC` (stereo not drawn) belongs 7.89%; to `O=C(CCC(=O)N1CCSc2ccccc21)Nc1ccc(F)cc1`, 14.3%. Turning to `CCC(C)(C(=O)NC1CCCC1)N(C(=O)Cc1cccs1)c1c(C)n(C)n(-c2ccccc2)c1=O` (stereo not drawn), the “hERG current change (%, negative = inhibition) at 1uM” value worked out at 9.14%. In the case of `Cc1ccc(N(CC(=O)O)S(=O)(=O)c2cccc3nonc23)cc1`, the “hERG current change (%, negative = inhibition) at 1uM” value is listed as 8.31%. For `CC(C)(C)NC(=O)NC(=O)COC(=O)c1cccc(NS(=O)(=O)c2ccc(F)c(F)c2)c1` the value was 7.76%.

`Cn1nnnc1SCC(=O)N1CCc2ccccc21`: the “hERG current change (%, negative = inhibition) at 1uM” value is reported as 8.86%. For `CCN(CC)CCCCOc1ccccc1OC` the value was 1.8%; for `Cl.Nc1nc(N2CCN(C(=O)c3ccco3)CC2)nc2ccccc12`, -32.9%; for `CC1Cc2ccccc2C(CCc2ccccc2)=N1.Cl` (stereo not drawn), 8.68%. To `Cc1cc(Cl)ccc1OCC(=O)N1CCCN(C(=O)COc2ccc(Cl)cc2C)CC1` belongs -4.16%; to `CCOC(=O)C1CCN(Cc2ccc(N(C)C)cc2)CC1`, 13.5%; to `COc1ccc2ccccc2c1/C=N\n1c(C)cc(C)c(C(N)=O)c1=O`, 10.1%. For `O=C(NNC(=S)NC1CCCCC1)c1ccccc1Cl` the value was 8.08%. Take `CC1CCCN(CCCNC(=O)c2coc3nc4ccccc4nc23)C1` (stereo not drawn): the “hERG current change (%, negative = inhibition) at 1uM” value is given as 8.45%. On to `CCOc1ccc(Nc2nc3cc(S(=O)(=O)CC)ccc3o2)cc1`, for which the “hERG current change (%, negative = inhibition) at 1uM” value was determined as 11%. To `CC(C)NC(=S)Nc1ccc2[nH]c(=O)[nH]c2c1` belongs 5.15%; to `COc1ccc(C2CC(C(F)(F)F)n3nc(C(=O)NCCCn4ccnc4)cc3N2)cc1OC` (stereo not drawn), 6.41%. To `COc1cc(NC(=O)CN2CCN(S(=O)(=O)/C=C/c3ccccc3)CC2)cc(OC)c1OC` belongs 3.24%; to `Cc1c(C(=O)N/N=C/c2c(O)ccc3ccccc23)nnn1-c1nonc1N`, 20%; to `Cc1c(NC(=O)COc2ccc(C(C)C)cc2)c(=O)n(-c2ccccc2)n1C`, -14.3%.

Take `CCSc1nsc(SCC)c1C(N)=O`: the “hERG current change (%, negative = inhibition) at 1uM” value is reported as 10.7%. Consider `CCOc1ccnc2c1c(=O)n(Cc1cc(OC)cc(OC)c1)c(=O)n2C`, for which the “hERG current change (%, negative = inhibition) at 1uM” value was 6.55%.

For the compound `Cl.O=C(CN1CCCC1)NC12CC3CC(CC(C3)C1)C2`, the “hERG current change (%, negative = inhibition) at 1uM” value is given as 4.67%. To `Cc1cccn2c(=O)c3cc(C(=O)NCc4ccco4)c(=N)n(C4CCCC4)c3nc12` belongs -85.5%.

For the compound `COc1cc2ncnc(NCc3ccccc3)c2cc1OC`, the “hERG current change (%, negative = inhibition) at 1uM” value turned out to be 6.49%. With `CC(=O)c1ccc(NC(=S)NCCCN2CCOCC2)cc1`, the “hERG current change (%, negative = inhibition) at 1uM” value was 10.3%.

On to `CN1C(=O)N(C)C(=O)C(CCc2ccncc2)(CCc2ccncc2)C1=O`, for which the “hERG current change (%, negative = inhibition) at 1uM” value is listed as -8.33%. To `COc1ccccc1NCCC(=O)OCC(=O)Nc1cccc(S(=O)(=O)N(C)C)c1` belongs 12.1%; to `COCn1c(C(O)c2ccccc2)cc2ccccc21` (stereo not drawn), 13.6%. In the case of `COC(=O)Nc1nc(Sc2ncc(C(F)(F)F)cc2Cl)n[nH]1`, the “hERG current change (%, negative = inhibition) at 1uM” value is on record as 0.842%.

As for `Cc1ccc([C@@H]2CC=C(C(=O)O)CN2S(=O)(=O)c2ccc(C)cc2)cc1`, the “hERG current change (%, negative = inhibition) at 1uM” value is given as 17.6%. For the compound `COC(=O)c1cn(C(=O)c2cc(Cl)ccc2Cl)c2ccccc12`, the “hERG current change (%, negative = inhibition) at 1uM” value is listed as 12.7%.

Take `N#Cc1nc(N)nc(N(c2ccccc2)c2ccccc2)n1`: the “hERG current change (%, negative = inhibition) at 1uM” value is reported as -0.884%. For `CCOc1ccc(CC(=O)N/N=C/c2sccc2C)cc1` the value was 11.8%; for `CC1CC(C)CN(S(=O)(=O)c2ccc3c(c2)n(C)c(=O)c(=O)n3C)C1` (stereo not drawn), 11.4%; for `Cc1ccnc(NC(=O)CCC(=O)N(CC(=O)NCC2CCCO2)Cc2ccc(F)cc2)c1` (stereo not drawn), 3.8%. To `CCCCN(C)C(=O)C1CCC(=O)N(c2cc(OC)c(OC)c(OC)c2)C1c1ccc(OC)cc1` (stereo not drawn) belongs 8.58%. For `CCOC(=O)c1sc2nc(SC)nc(-c3ccccc3)c2c1N` the value was 11.2%.

On to `CN(C)[C@@H](CO)c1nnc([C@H](CC(=O)O)NC(=O)C2CCNCC2)o1.Cl`, for which the “hERG current change (%, negative = inhibition) at 1uM” value worked out at 11.6%.
